Results taken from patent publication US20240271082A1, “[…]-MODIFIED SAC[…] STRAINS AS PR[…] […] AGENTS” (Fzata, Inc., priority 2021, published 2024).
Read-outs that look alike come from different tables or passages of the source.

How the values were obtained:
[1] = molecular target: T1, mouse TNF-α (Mus musculus, UniProt P06804); experiment: Binding to mouse TNF-α
T1 sequence (P06804 80-235 limits assumed): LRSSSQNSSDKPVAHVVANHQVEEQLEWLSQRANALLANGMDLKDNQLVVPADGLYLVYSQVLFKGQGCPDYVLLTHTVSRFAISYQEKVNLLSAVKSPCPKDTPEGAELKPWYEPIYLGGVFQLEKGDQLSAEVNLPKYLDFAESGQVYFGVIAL

[2] = molecular target: T1, mouse TNF-α; experiment: Neutralization of mouse TNF-α cytotoxicity on L929 cells; type: cell-based
Experimental: L929 cells (FIG. 3A) were treated with 100 ng/mL of TNF-α alone (FIG. 3B) or together with monovalent anti-TNF-α (FIG. 3C) or bivalent anti-TNF-α VHH-Fc (FIG. 3D) for either 6 h or 24 h. Cell rounding (which may be indicative of apoptosis) was observed under microscope.
We constructed a prototype yeast Sb-amTNF (FZ006m) secreting an anti-mouse TNF-α VHH, which allows us to evaluate the therapeutic potential of the engineered yeast against intestinal inflammatory diseases in conventional mice. […] We therefore engineered the Sb-amTNF strain by inserting VHH/VHH-Fc cassettes into the pTEF or pTDH loci of the auxotrophic Sb strain. Sb-amTNF stably secreted functional anti-mouse TNF-α VHH/VHH-Fc as detected by ELISA and a cell culture assay (FIGS. 3A-3D).

[3] = Anti-drug antibody response after repeated dosing in mice; type: in vivo, mouse; settings: 8-week period
Experimental: Groups of mice (n=5) were treated with PBS, Sb-amTNF (10^9 CFU/dose), or purified anti-TNF-α VHH/VHH-Fc (10 mg/Kg per injection). Oral Sb-amTNF were three courses of daily treatments, with 36 doses in total. Purified anti-mouse VHH/VHH-Fc fusion polypeptide was ip injected two courses, with 6 doses in total. Fecal and serum samples were collected for ELISA. […] Fecal samples (1:1 w/v in PBS) and serum samples (1000× dilution in PBS) were added to ELISA plates coated with purified anti-TNF VII/VHH-Fc and OD of IgA in fecal and IgG in serum samples were measured.
SbamTNF constitutively expresses a bi-valent VHH fused with human Fe. Experiments were conducted to determine whether long-term, repeated oral dosing Sb-amTNF would induce an anti-antibody response that could potentially reduce drug activity.

[4] = molecular target: hTNF-α binding to TNFR2 (Homo sapiens, UniProt P01375); experiment: Inhibition of hTNF-α binding to TNFR2
Sequence of hTNF-α binding to TNFR2 (P01375 77-233 limits assumed): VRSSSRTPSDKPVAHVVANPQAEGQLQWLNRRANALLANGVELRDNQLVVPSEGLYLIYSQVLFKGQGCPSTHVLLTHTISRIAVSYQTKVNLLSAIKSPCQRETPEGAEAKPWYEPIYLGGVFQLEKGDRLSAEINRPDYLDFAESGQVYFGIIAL

[5] = molecular target: T2, hTNF-α (Homo sapiens, UniProt P01375); experiment: ELISA binding to human TNF-α
T2 sequence (P01375 77-233 limits assumed): as above

[6] = molecular target: T2, hTNF-α; experiment: Binding kinetics parameters
[7] = molecular target: T3, hIL-17A (Homo sapiens, UniProt Q16552); experiment: IL-17A neutralization, HEK293 reporter cells; type: cell-based; settings: human IL-17 reporter HEK293 cells
T3 sequence (Q16552 24-155): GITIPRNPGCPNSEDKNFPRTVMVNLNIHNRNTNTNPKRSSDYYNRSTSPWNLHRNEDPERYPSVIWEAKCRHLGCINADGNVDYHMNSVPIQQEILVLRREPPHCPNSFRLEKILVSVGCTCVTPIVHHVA

[8] = molecular target: T3, hIL-17A; experiment: ELISA binding to hIL-17A

Molecule | binding to mouse TNF-α (mTNF-α) [1] | neutralizing activity against mouse TNF-α cytotoxicity [2] | neutralizing activity against mouse TNF-α cytotoxicity ([2]; listed as anti-mouse TNF-α VHH/VHH-Fc) | neutralizing activity against mouse TNF-α cytotoxicity ([2]; listed as bivalent anti-TNF-α VHH-Fc fusion) | anti-antibody IgG in sera [3] | inhibition of hTNF-α binding to TNFR2 [4] | specificity / binding to hTNF-α (in words) [5] | Ka [6] | neutralization of IL-17A bioactivity [7] | binding to hIL-17 / hIL-17A [8]
Anti-mTNF-α: a homo-dimer of VHH fused with Fc fragment, specific binding to mouse TNF-α (protein) QVQLQDSGGGLVQAGGSLRLSCAASGGTFSSIIMAWFRQAPGKEREFVGAVSWSGGTTVYADSVLGRFEISRDSARKSVYLQMNSLKPEDTAVYYCAARPYQKYNWASASYNVWGQGTQVTVSSGGGGSGGGGSGGGGSQVQLQDSGGGLVQAGGSLRLSCAASGGTFSSIIMAWFRQAPGKEREFVGAVSWSGGTTVYADSVLGRFEISRDSARKSVYLQMNSLKPEDTAVYYCAARPYQKYNWASASYNVWGQGTQVTVSS[human IgG1 Fc not written out] | specific binding to mouse TNF-α | blockade | highest neutralizing activity | significantly more potent | potent anti-antibody IgG responses | – | – | – | – | –
A3: A Fc-fusion humanized VHH monomer of Anti-human TNF-α-VHH (protein) EVQLLESGGGLVQPGGSLRLSCAASGRTFSTYAMGWFRQAPGKEREFVATVDNDGFTMHADSVKGRFTISRDNSKNTLYLQMNSLRAEDTAVYYCAAGQYSKFVESYAYWGQGTLVTVSS[human IgG1 Fc not written out] | barely binding to mTNF-α | – | – | – | – | inhibits hTNF-α binding | highly specific to hTNF-α | 6.257E+5 1/ms | – | –
anti-hIL-17A-Fc: a Fc-fusion VHH monomer against hIL-17 (protein) QVQLVQSGGGLVQAGGSLRLSCAASGGTFATSPMGWLRQAPGKGTEFVAAISPSGGDRIYADSVKGRFTISRDNAGYFIYLQMNSLKPEDTAVYYCAVRRRFDGTSYYTGDYDSWGQGTLVTVSS[human IgG1 Fc not written out] | – | – | – | – | – | – | – | – | mediates inhibitions | specifically binds to hIL-17
